The whole screen tested about 220,000 compounds, of which about 16,000 (7.3%) were called active. Inconclusive results, whose numbers are uncertain, are shown with a selection of clear calls. Calls follow the shape of the dose curve; as a rule, active = well fitted inhibition curve with a large enough effect (not every such curve was filed as active); inconclusive = small, poorly fitted or top-dose-only effect, or another doubt; inactive = no such curve, though single readings can be large or run the other way. No potency is given beside an inconclusive call; the fits are too rough.
Biological target: Aldehyde dehydrogenase 1A1 (Homo sapiens) (UniProt P00352)
Test: qHTS Assay for Inhibitors of Aldehyde Dehydrogenase 1 (ALDH1A1);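 as to activity, negative = inhibition: plate controls were no enzyme wells and a reference inhibitor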
Conditions: Purified ALDH1A1, NADH fluorescence, propionaldehyde substrate; series mostly up to 75.3 µM; activity, negative = inhibition: at the top concentration
Potency is read from the fitted curve at half-maximal effect; tags tell the direction and shape of the fitted curve.

Sequence of UniProt P00352 (P00352 whole entry, looked up): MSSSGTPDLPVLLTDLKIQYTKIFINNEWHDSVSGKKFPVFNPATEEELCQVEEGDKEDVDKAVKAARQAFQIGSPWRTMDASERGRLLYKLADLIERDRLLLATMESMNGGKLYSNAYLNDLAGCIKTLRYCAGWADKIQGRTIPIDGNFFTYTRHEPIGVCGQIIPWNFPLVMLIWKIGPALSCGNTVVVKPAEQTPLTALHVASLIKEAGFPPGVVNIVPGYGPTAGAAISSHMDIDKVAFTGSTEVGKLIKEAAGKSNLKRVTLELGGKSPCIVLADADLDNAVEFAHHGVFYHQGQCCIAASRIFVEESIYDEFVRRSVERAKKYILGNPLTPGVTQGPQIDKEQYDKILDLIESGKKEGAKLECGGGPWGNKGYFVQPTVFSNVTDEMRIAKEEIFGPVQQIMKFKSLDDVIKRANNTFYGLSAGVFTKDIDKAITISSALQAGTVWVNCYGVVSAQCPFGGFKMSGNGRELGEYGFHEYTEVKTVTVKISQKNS

| Compound | activity, negative = inhibition | Potency |
| --- | --- | --- |
| CCCCn1c(NCc2cccs2)nc2ccccc21 | inactive: -2.15% |  |
| COc1cccc(NC(=O)COC(=O)c2c3c(nc4ccccc24)CCC(C)C3)c1 (configuration not stated) |  | inconclusive [inhibitor, partial curve] |
| Cc1onc(-c2ccccc2Cl)c1C(=O)Nc1ccccc1C(N)=O |  | inconclusive [inhibitor, single point] |
| CCOc1ccc2cc(C3CC(c4ccco4)=NN3S(=O)(=O)c3ccccc3)c(Cl)nc2c1 (configuration not stated) |  | inconclusive [inhibitor, single point] |
| CN1CCC2(CC1)N=C(c1ccc(F)cc1)C(=S)N2C(=O)c1ccccc1 |  | active: 22.4 µM |
| CC(=O)Nc1ccc2c(c1)C(=Nc1ccc(C(=O)O)cc1)c1ccccc1-2 | inactive: -4.17% [at 13.5 µM] |  |
| Cc1ccc(-c2nc(NCc3ccco3)n(C(=O)c3ccco3)n2)cc1 |  | inconclusive [inhibitor, single point] |
| CCCCCCOC(=O)C[N+](C)(C)CCOC1CC2CCC1(C)C2(C)C (configuration not stated) | inactive: -12.4% |  |
| CC(=O)N1CCN(c2ccc(Oc3ncnc4sccc34)cc2)CC1 | inactive: 16.2% |  |
| COC(=O)c1ccccc1NC(=O)c1nc2nc(C)cc(C)n2n1 |  | inconclusive [inhibitor, single point] |
| CC(=O)OC1C(=O)[C@@]2(C)C(O)CC3OC[C@]3(OC(C)=O)C2C(OC(=O)c2ccccc2)[C@]2(O)CC(OC(=O)C(O)C(NC(=O)c3ccccc3)c3ccccc3)C(C)=C1C2(C)C (some centres not stated) | inactive: 3.82% |  |
| Cc1ccc(N2C(=O)C3C4C=CC(CNC(=S)Nc5ccc(Cl)cc5)(O4)C3C2=O)cc1 (configuration not stated) |  | active: 0.316 µM |
| Cc1cccc(N2CCN(C(=O)Cn3cccc3)CC2)c1C |  | inconclusive [inhibitor, single point] |
| CSc1nsc(/C=C/Nc2ccc(Cl)cc2)c1C#N |  | active: 7.94 µM |
| COc1ccc(-n2nnnc2-c2cccnc2)cc1 | inactive: 7.57% |  |
| Cc1ccccc1Oc1cc(NC(=O)Cn2cnc([N+](=O)[O-])c2)cc([N+](=O)[O-])c1 |  | inconclusive [inhibitor, single point] |
| Cc1cccc(Nc2nc(-c3ccccc3)c(C(=O)Nc3cccnc3)s2)c1 |  | inconclusive [inhibitor, partial curve] |
| CCOc1cc(NC(=S)NCC2CCCO2)c(OCC)cc1NC(=O)c1ccccc1F (configuration not stated) |  | inconclusive [inhibitor, single point] |
| S=C(Nc1ccccc1)N1CCn2cccc2C1c1cccnc1 (configuration not stated) | inactive: -0.45% |  |
| Cn1c(SCC(=O)N2CCCC2)nnc1-c1cnccn1 | inactive: -3.14% |  |
| CC1=C/C(=C\c2ccc3c(c2)OCO3)C(=O)S1 |  | inconclusive [inhibitor, single point] |
| Cc1cccc(N(CC(=O)N/N=C/c2cc([N+](=O)[O-])ccc2Cl)S(C)(=O)=O)c1C |  | inconclusive [inhibitor, single point] |
| O=c1c2ccccc2nnn1Cc1cccc2ccccc12 | inactive: -4.77% |  |
| CC(C)CCNC(=O)C12CN(Cc3ccccc3)CC1C(c1ccc([N+](=O)[O-])cc1)=NO2 (configuration not stated) |  | active: 2.82 µM |

| Compound | activity, negative = inhibition | Potency |
| --- | --- | --- |
| Cc1c(C(=O)NN2CCOCC2)oc2c1ccc1ccccc12 | inactive: 8.33% |  |
| COc1ccc(NC(=O)c2cccc(Oc3ccc([N+](=O)[O-])cc3Cl)c2)cc1 |  | inconclusive [inhibitor, single point] |
| O=C1CC(SCc2nc3ccccc3[nH]2)C(=O)N1c1ccc(F)c(Cl)c1 (configuration not stated) |  | active: 5.01 µM |
| COc1ccc(N2CCCn3c2nc2c3c(=O)n(Cc3ccccc3)c(=O)n2C)c(OC)c1 |  | inconclusive [inhibitor, single point] |
| COc1c2ccccc2nc2occc12 | inactive: 4.08% |  |
| COc1cc(C=O)ccc1OCCOCCOc1ccccc1Cl |  | inconclusive [inhibitor, partial curve] |
| O=c1[nH]c2cc3c(cc2cc1CN(CCc1ccccc1)Cc1nnnn1C1CCCC1)OCCO3 |  | inconclusive [inhibitor, partial curve] |
| C=C/C1=C/Cc2ccccc2[C@H](C[N+](=O)[O-])C(C(=O)OC)(C(=O)OC)C1 | inactive: -1.98% |  |
| C=CCn1c(SCC(=O)c2cc(C)n(Cc3cccs3)c2C)nnc1-c1ccncc1 |  | inconclusive [inhibitor, single point] |
| COc1ccc(-c2nc3c(n2O)CCC/C3=N\O)cc1 |  | inconclusive [inhibitor, single point] |
| Cc1ccc2[nH]c(=O)c(CN(CC3CCCO3)S(=O)(=O)c3cccc4nsnc34)cc2c1 (configuration not stated) |  | active: 20 µM |
| CCOc1cc(C=O)ccc1OCCSc1ccc(Cl)cc1 |  | inconclusive [inhibitor, single point] |
| CN(C)CCN(C(=O)/C=C/c1cccs1)c1nc2c(F)cc(F)cc2s1 |  | inconclusive [inhibitor, single point] |
| CC(C)(C)c1ccc(C(=O)Nc2ccc(CN3CCS(=O)(=O)CC3)cc2)cc1 |  | inconclusive [inhibitor, single point] |
| COc1cc2c(cc1OC)C(c1ccccc1)N(C(=O)CSCC(=O)O)CC2 (configuration not stated) |  | inconclusive [inhibitor, single point] |
| CCOC(=O)C1CCN(Cc2cn[nH]c2-c2ccccc2)CC1 | inactive: -7.07% |  |
| COc1ccccc1NC(=S)NNC(=O)c1c(Cl)c(C)nn1C |  | inconclusive [inhibitor, single point] |
| COc1ccc(NC(=O)COC(=O)c2ccc(Cl)c(S(N)(=O)=O)c2)c([N+](=O)[O-])c1 |  | inconclusive [inhibitor, partial curve] |
| CC1(C)Cc2c(C#N)c(SCC(=O)c3ccccc3)nc(N3CCOCC3)c2CS1 |  | active: 12.6 µM |
| CCCc1cc(COC)c(C#N)c(=O)[nH]1 |  | inconclusive [inhibitor, partial curve] |
| O=[N+]([O-])c1ccccc1S(=O)(=O)N1CCN(Cc2ccc3c(c2)OCO3)CC1 |  | inconclusive [inhibitor, single point] |
| O=C(NC1CCCc2ccccc21)C1CCN(S(=O)(=O)c2cccc3nonc23)CC1 (configuration not stated) |  | active: 31.6 µM |
| COc1ccc(COc2cc(-c3cccc(OC)c3)nc3ccc(NC(=O)c4cccnc4)cc23)cc1 |  | inconclusive [inhibitor, single point] |
| CC1=CC(c2ccc(Cl)cc2)n2nc(N3C(=O)CCC3=O)nc2N1 (configuration not stated) |  | inconclusive [inhibitor, partial curve] |

| Compound | activity, negative = inhibition | Potency |
| --- | --- | --- |
| COc1ccc([N+](=O)[O-])cc1NC(=O)COC(=O)c1ccccn1 |  | inconclusive [inhibitor, single point] |
| N#Cc1c(NC(=O)c2ccncc2)sc2c1CCC2 |  | active: 10 µM |
| CCNc1nc(-c2ccc(OC(F)F)cc2)c(C)s1 |  | inconclusive [inhibitor, single point] |
| CC(OC(=O)C1CC(O)CN1S(=O)(=O)c1ccccc1[N+](=O)[O-])C(=O)N1CCCCC1 (configuration not stated) |  | inconclusive [inhibitor, single point] |
| CCOc1ccc(/C=C/c2c([N+](=O)[O-])c(=O)n(C)c(=O)n2C)cc1 | inactive: 0.815% |  |
| CSc1ccccc1C(=O)C1CCCN(C(=O)c2cc(C(C)C)no2)C1 (configuration not stated) |  | active: 17.8 µM |
| O=C(c1cccs1)C1C(c2ccc(Br)cc2)NC(=S)NC1(O)C(F)(F)F (configuration not stated) |  | active: 3.16 µM |
| CCOC(=O)c1ccc(-n2c(CN3CCN(CC)CC3)nc3ccc([N+](=O)[O-])cc3c2=O)cc1 |  | inconclusive [inhibitor, single point] |
| COC(=O)c1c(NC(=O)CN2CCN(c3ccccc3OC)CC2)c2cc(C)ccc2n1C |  | inconclusive [inhibitor, single point] |
| CC1=NCCN1S(=O)(=O)c1c(C(C)C)cc(C(C)C)cc1C(C)C |  | active: 2.24 µM |
| CCOC(=O)c1ccc(NC(=O)C2CCN(C(=O)c3ccc(OC)c(OC)c3)CC2)cc1 |  | inconclusive [inhibitor, single point] |
| CC1Cc2ccccc2N1C(=O)c1cc2c(=O)n3ccccc3nc2n1C (configuration not stated) |  | inconclusive [inhibitor, single point] |
| CC(C)c1ccc(S(=O)(=O)N2CCCCC2)cc1 | inactive: -5.42% |  |
| Cc1cccc(NC(=O)COC(=O)c2ccc3c(=O)n4c(nc3c2)CCC4)c1 |  | inconclusive [inhibitor, single point] |
| CCOC(=O)c1ccc(NC(=O)CSc2nnnn2CCCO)cc1 |  | inconclusive [inhibitor, single point] |
| CCCS(=O)(=O)N1CCC(C(=O)NC2CCCCC2C)CC1 (configuration not stated) |  | active: 10 µM |
| CCOc1cc(CNc2ccc(N(C)C)cc2)cc(Br)c1OCC(=O)NC(C)(C)C |  | active: 3.16 µM |
| O=C(COc1cc(=O)n2c(n1)SCCC2)c1ccccc1 |  | active: 14.1 µM |
| N#Cc1c(NC(=S)NC(=O)c2ccccc2)sc2c1CCCC2 |  | active: 3.16 µM |
| O=C(NCc1ccco1)C(c1ccc(F)cc1)N(C(=O)Cc1cccs1)c1cccnc1 (configuration not stated) | inactive: -9.24% |  |
| CC(=O)N1N=C(c2ccc3ccccc3c2)OC12CCCC2 |  | inconclusive [inhibitor, partial curve] |
| Cc1ccc(NC(=O)C2CCCN(C(=O)c3ccc(Cl)cc3)C2)cc1 (configuration not stated) | inactive: -10% |  |
| CCSc1nnc(NC(=O)C2CC=CCC2C(=O)O)s1 (configuration not stated) |  | inconclusive [inhibitor, single point] |
| CCn1c(SCc2nc3ccccc3s2)nnc1-c1ccccc1 |  | inconclusive [inhibitor, single point] |
